From PubChem BioAssay AID686970 (National Center for Advancing Translational Sciences (NCATS), 2013)
“And” between values parts separate entries of the source, which are not always exact repeats. Identical values can stand only once. In all, about 360,000 compounds went through this assay and about 6,000 (1.7%) were called active. The shares of active, inactive and inconclusive entries below differ from those in the screen. The call rests on the fitted dose curve; in most records, active means well fitted cell-killing curve with a large enough effect; inconclusive means small, poorly fitted or top-dose-only effect, or effect the other way; inactive means flat fitted curve, though single readings scatter. Potencies of inconclusive entries are doubtful fits and often do not repeat.
Potency means the concentration at half of the fitted maximal effect; tags describe the fitted curve by direction and shape.

Experiment: qHTS for induction of synthetic lethality in tumor cells producing 2HG: qHTS for the HT-1080-NT fibrosarcoma cell line;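 further: NT is the 2HG producing partner of a matched IDH1 knockdown line; nearly all actives have a fitted effect of over 55% in size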;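 on activity, negative = less viability: 0% = DMSO-treated cells and -100% = media-only wells without cells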
Settings: HT-1080-NT fibrosarcoma viability, CellTiter-Glo ATP luminescence, 48 h; activity, negative = less viability: at 46.1 µM (top of the series) unless noted
Procedure, shortened: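 HT-1080-NT; 750 cells/well; 5% FBS RPMI; 48 h compound, 37 degrees C; CellTiter-Glo luminescence; curve fitting and curve-class assignment.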
In the case of N/C(Cc1ccc(Cl)cc1)=N\OC(=O)c1ccccc1, the Potency is reported as inconclusive: 29.1 µM [cytotoxic, single point].
With CCN(CC)c1ccc(C(=O)N/N=C/c2ccccc2OC(F)F)cc1 the Potency was inconclusive: 20.6 µM [cytotoxic, single point].
In the case of COC(=O)c1ccc(CCc2cc(O)ccc2O)cc1, the Potency is reported as active: 25.9 µM.
In the case of CCC(C)(C)n1nnnc1C(c1cc2cc3c(cc2[nH]c1=O)OCO3)N1CCN(C)CC1 (centres undefined), the Potency is reported as “inactive”.
With COc1ccc(/C=N/NC(=O)CCc2ccccc2)cc1O the Potency was inconclusive: 5.8 µM [cytotoxic, partial curve].
For CC(C)c1ccc(NC(=O)C2Cc3c(-c4ccccc4Oc4ccccc4)ccnc3O2)cc1 (centres undefined), the Potency was “inactive”.
In the case of COc1ccc(CNC(=O)CC2C[C@H](C(=O)N3CCOCC3)[C@@]3(CCC4CCCC4)c4[nH]c5ccccc5c4CCN3C2=O)cc1OC (some centres undefined), the Potency is reported as “inactive”.
For COc1ccccc1NC(=O)CSc1nncs1, the Potency was “inactive”.
For CC(C)C(Sc1nc(-c2ccccc2)cc(-c2ccccc2)c1C#N)C(=O)O (centres undefined), the Potency was inconclusive: 11.6 µM [cytotoxic, partial curve].
In the case of O=C1N=C(N2CCOCC2)SC1=C1CCCCC1, the Potency is reported as inconclusive: 29.1 µM [cytotoxic, single point].
For Cc1cccc(-c2nc(CN3CCCC(C(=O)NC4CCCC4)C3)c(C)o2)c1 (centres undefined), the Potency was inconclusive: 35.5 µM [cytotoxic, single point].
For COc1ccc2nc3cc(Cl)ccc3c(Nc3ccc(O)c(CN4CCN(C)CC4)c3)c2c1, the Potency was inconclusive: 18.4 µM [cytotoxic, single point].
With Cc1cccc(Cn2cnc3c(nnn3Cc3ccc(Cl)cc3)c2=O)c1 the activity, negative = less viability was inconclusive: -33.1% [cytotoxic].
With CNC[C@@H](Cc1ccccc1)NC[C@@H](CC1CCCCC1)NCCCc1ccccc1 the Potency was inconclusive: 20.6 µM [cytotoxic, single point].
In the case of O=C1NC(c2ccccc2)=C(c2nc3ccccc3s2)C(c2ccccc2)N1 (centres undefined), the Potency is reported as inconclusive: 35.5 µM [cytotoxic, single point].
In the case of COCCN(C(=O)CSc1nnc(C)n1Cc1ccccc1)c1c(N)n(Cc2ccccc2)c(=O)[nH]c1=O, the Potency is reported as inconclusive: 36.6 µM [rising, partial curve, poor fit].
In the case of Cc1nc(N=Nc2ccc(O)cc2)n[nH]1, the Potency is reported as inconclusive: 11.6 µM [cytotoxic, partial curve].
For C[C@@H](c1ccccc1)N1C[C@H](COCc2ccccc2)Oc2cc(N3CC[C@@H](O)C3)ccc2S1(=O)=O, the Potency was inconclusive: 25.9 µM [cytotoxic, single point].
For COc1cc(C2c3[nH]c4ccccc4c3CC3COC(=O)N32)cc(OC)c1O (centres undefined), the Potency was inconclusive: 0.58 µM [cytotoxic, full curve, poor fit].
In the case of O=C(O)Cc1sc(Nc2cccc3ccccc23)nc1-c1ccc(Cl)cc1, the Potency is reported as active: 11.6 µM.
For COc1ccc(-c2ccc(-c3noc(C)n3)c(OC)n2)cc1, the Potency was inconclusive: 35.5 µM [cytotoxic, single point].
For OC(Cc1ccccc1Br)c1ncc(-c2ccc(Cl)cc2)[nH]1 (centres undefined), the Potency was inconclusive: 25.9 µM [cytotoxic, single point].
For COc1ccc(-c2noc(CCC(=O)Nc3ccc(C)c(C)c3)n2)cc1, the Potency was inconclusive: 22.4 µM [cytotoxic, single point].
In the case of CC(=O)Cc1nsc(NC(=O)c2ccc(-c3cc(Cl)ccc3Cl)o2)n1, the Potency is reported as active: 20.6 µM.
With CC(=O)c1cccc(NC(=O)c2cccc(NC(=O)c3ccco3)c2)c1 the Potency was inconclusive: 29.1 µM [cytotoxic, single point].
With CN1CCN(C(=O)c2cccc(-c3cnc4cnc(-c5ccccc5Oc5ccccc5)cn34)c2)CC1 the Potency was inconclusive: 23.1 µM [cytotoxic, single point].
In the case of COc1ccc(N=Cc2ccc(N(CCC#N)CCC#N)cc2)cc1, the Potency is reported as inconclusive: 29.1 µM [cytotoxic, single point].
In the case of COC(=O)c1sc2ncccc2c1OCc1cccc(Cl)c1, the Potency is reported as inconclusive: 29.1 µM [rising, single point].
For CCN1CCN(c2nc(Nc3cccc(OC)c3)nc(N)c2[N+](=O)[O-])CC1, the Potency was inconclusive: 23.1 µM [cytotoxic, single point].
In the case of O=S(=O)(Nc1ccc(OC(F)F)cc1)c1ccc(-c2ccon2)s1, the Potency is reported as “inactive”.
With O=S(Cc1ccccc1)CC(O)(c1ccc(Cl)cc1)c1ccc(Cl)cc1 (centres undefined) the Potency was inconclusive: 35.5 µM [cytotoxic, single point].
With O=C(/C=C/c1cccs1)N1CCN(c2ccc(O)cc2)CC1 the Potency was inconclusive: 9.2 µM [cytotoxic, partial curve].
With Oc1cc(O)cc(/C=C/c2ccc(O)c(O)c2)c1 the Potency was inconclusive: 23.1 µM [cytotoxic, partial curve].
With CCCS(=O)(=O)NC(=O)C1(C)CCCN(C(=O)c2cncc(Br)c2)C1 (centres undefined) the Potency was inconclusive: 29.1 µM [rising, single point].
In the case of Oc1ccccc1/C=N/Nc1nccnc1Cl, the Potency is reported as inconclusive: 2.31 µM [cytotoxic, full curve].
In the case of O=C(CSc1nc2ccccc2c(=O)n1CC1CCCO1)N1CCN(c2ccccc2)CC1 (centres undefined), the Potency is reported as inconclusive: 25.1 µM [cytotoxic, single point].
In the case of O=C(Cc1ccccc1F)Nc1nc(-c2ccc(F)cc2)cs1, the Potency is reported as inconclusive: 29.1 µM [cytotoxic, single point].
With COc1cccc(Nc2nc(-c3sc(NC(=O)c4ccccc4)nc3C)cs2)c1 the Potency was inconclusive: 16.4 µM [cytotoxic, partial curve].
With O=C1NC(Cc2ccccc2)c2nc3cc(F)ccc3c(=O)n2-c2cc3ccccc3cc21 (centres undefined) the Potency was inconclusive: 29.1 µM [cytotoxic, single point].
In the case of Cc1nn(-c2ccccc2)c2nc(-c3cccs3)cc(C(=O)NN)c12, the Potency is reported as inconclusive: 16.4 µM [cytotoxic, single point].
In the case of CC(=O)Nc1cc2nn(-c3ccccc3)nc2cc1C, the activity, negative = less viability is reported as inconclusive: 4.47%.
For COc1ccc(OCCNc2cc(N3CCOCC3)ccc2[N+](=O)[O-])cc1, the Potency was inconclusive: 20.6 µM [cytotoxic, single point].
With S=c1[nH]nc(-c2ccncc2)n1/N=C/c1cccc(Cl)c1 the Potency was “inactive”.
In the case of COc1ccc2cc3[n+](cc2c1OC)CCc1cc2c(cc1-3)OCO2, the Potency is reported as “inactive and inconclusive: 2.31 µM [cytotoxic, full curve]”.
With O=C(Nc1ccc(Cl)c(S(=O)(=O)N2CCCCC2)c1)c1ccncc1 the Potency was inconclusive: 18.4 µM [cytotoxic, single point].
With N#CC(c1ccccc1)c1ccc2c(C(F)(F)F)cc(C(F)(F)F)nc2n1 (centres undefined) the Potency was “inactive”.
With COc1ccccc1NS(=O)(=O)c1cccc(-n2c(O)c(C=Nc3ccccc3C(=O)O)c3ccccc3c2=O)c1 the Potency was inconclusive: 2.91 µM [cytotoxic, full curve].
For CCCCc1c(-c2ccccc2OC)ncn1Cc1cccc(-c2ccccc2)c1, the Potency was active: 20.6 µM.
With C=CCn1c(SCC(=O)c2cccs2)nnc1-c1cccc(OC)c1 the Potency was inconclusive: 35.5 µM [cytotoxic, single point].
With Cn1c(=O)c2c(nc(NCc3ccc4c(c3)OCO4)n2Cc2ccccc2Cl)n(C)c1=O the Potency was “inactive”.
In the case of NS(=O)(=O)c1ccc(CCNC(=O)CNCCc2ccccc2)cc1, the Potency is reported as “inactive”.
In the case of COC(=O)C(=Cc1ccccc1[N+](=O)[O-])C(=O)OC, the Potency is reported as inconclusive: 18.4 µM [cytotoxic, single point].
For CCc1ccc2nc(N(CCCN(C)C)C(=O)c3ccc(S(=O)(=O)N4CCc5ccccc5C4)cc3)sc2c1, the Potency was inconclusive: 18.4 µM [cytotoxic, single point].
For COc1cccc(OC)c1-c1cnc(NC(C)=O)cn1, the Potency was inconclusive: 16.4 µM [rising, partial curve, poor fit].
With CCc1cccc(Nc2cnn(C34C[C@@H]5C[C@@H](CC(CC(=O)O)(C5)C3)C4)c(=O)c2Cl)c1 the Potency was inconclusive: 25.9 µM [cytotoxic, single point].
In the case of COc1cccc(-c2cc(C(=O)Nc3cc(C)n(Cc4ccc(Cl)cc4)n3)no2)c1, the Potency is reported as inconclusive: 31.6 µM [cytotoxic, single point].
For Cc1ccc(S(=O)(=O)N2CCN(C(=O)c3ccc(N4CCCC4)c([N+](=O)[O-])c3)CC2)cc1, the Potency was “inactive”.
In the case of COc1ccc(-c2cc(-c3ccccc3)c(C#N)c(S(C)=O)n2)cc1 (centres undefined), the Potency is reported as inconclusive: 29.1 µM [cytotoxic, single point].
For Nc1ncnc2c1ncn2[C@H]1CC[C@@H](CO)O1, the Potency was inconclusive: 1.84 µM [rising, partial curve, poor fit].
For COC(=O)[C@]12CCCCC=C1N(Cc1ccccc1)C(=O)[C@H](CC(=O)NCc1cccc(C(F)(F)F)c1)C2, the Potency was inconclusive: 29.1 µM [cytotoxic, single point].
For Cc1cc(-c2ccc(C)c(S(=O)(=O)NCC3CCN(Cc4ccccc4F)CC3)c2)on1, the Potency was inconclusive: 20.6 µM [cytotoxic, single point].
In the case of CC(C)CN(C(=O)COC(=O)c1cc2ccccc2cc1O)c1c(N)n(Cc2ccccc2)c(=O)[nH]c1=O, the Potency is reported as inconclusive: 29.1 µM [cytotoxic, single point].
With COc1ccc(NC(=O)C(c2ccc(C)cc2)N(C)C(=O)c2cnccn2)cc1 (centres undefined) the Potency was inconclusive: 18.4 µM [rising, partial curve].
With CC1=CC(C)(C)N=C(Nc2ccc(C)cc2)S1 the Potency was inconclusive: 22.4 µM [cytotoxic, single point].
